From PMC7819943, “Rice protein-binding microarrays: a tool to detect cis-acting elements near promoter regions in rice”
The other results are listed elsewhere or left out.

The sequences below were run against T1, OsWOX13 (Oryza sativa, UniProt Q5QMM3 1-267) (assay: protein-binding microarray (RPBM); PBS, 2% BSA, 51.3 ng/ul salmon testes DNA, 50 uM zinc acetate, 200 nM TF, 25 C, 1 h; high values mean tight binding). Conditions: protein: recombinant; tags: N-terminal polyhistidine and DsRed monomer fusion (pET32a); label: CyDye5-dUTP incorporated in the synthesized complementary strand; 3' TTTTT single-stranded linker to array surface; dsDNA, one strand shown.
T1 sequence: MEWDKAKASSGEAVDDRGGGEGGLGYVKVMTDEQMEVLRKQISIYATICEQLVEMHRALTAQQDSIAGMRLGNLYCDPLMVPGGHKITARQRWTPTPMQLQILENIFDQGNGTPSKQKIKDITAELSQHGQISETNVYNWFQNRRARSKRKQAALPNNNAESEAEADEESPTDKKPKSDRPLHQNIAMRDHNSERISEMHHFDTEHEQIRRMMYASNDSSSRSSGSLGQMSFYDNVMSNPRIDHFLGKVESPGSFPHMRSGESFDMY
Outline: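 Using Ni–NTA, transcription factors fused N-terminally to polyhistidine and DsRed were purified after expression in E. coli BL21-CodonPlus. These were incubated at 200 nM with a blocked, double-stranded custom Agilent array for 1 h at 25 °C in a buffer containing 50 µM zinc acetate, and the array was washed. The binding signal is per-feature fluorescence intensity (arbitrary units) on an Axon 4000B scanner.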
For “CCTTGATAATTCCCTGCATCATACCCCTATTCCGGTATGACGGAGTCACCTAGTGCAG”, the binding signal was 3290 fluorescence intensity (a.u.). With “GCTGATTGAGAGAAGATTTCTCTTATTCTCCGCCCGCATGCGGAGTCACCTAGTGCAG” the binding signal was 24900 fluorescence intensity (a.u.). In the case of “TCTAGATTTGATCATTTTGACCTCTTGCTCCGTTAGATCTCGGAGTCACCTAGTGCAG”, the binding signal is reported as 9940 fluorescence intensity (a.u.). In the case of “ACTGTTTGATTTATTCGCTTGGGCCGTAAATCTTGTGTGTCGGAGTCACCTAGTGCAG”, the binding signal is reported as 13400 fluorescence intensity (a.u.). “GAAATCTATCTATCAAATTGACCCTACTATTTAACCCTGACGGAGTCACCTAGTGCAG” was tested, and the binding signal was 7330 fluorescence intensity (a.u.). In the case of “TTCTGATCACAGATCAATTACTCTTGATCGCCCATTTATTCGGAGTCACCTAGTGCAG”, the binding signal is reported as 9590 fluorescence intensity (a.u.). “TATAATTATGTCATCACATCAGCACCATATATATGGAATCCGGAGTCACCTAGTGCAG” was tested, and the binding signal was 16300 fluorescence intensity (a.u.). In the case of “TACAGGTTCAGTGATAATTTAATCATAAAACTTACACGTGCGGAGTCACCTAGTGCAG”, the binding signal is reported as 3330 fluorescence intensity (a.u.). For “TCCAAATTGGCGGTTGGATCGAGCCAGCGCCGCGGCCACGCGGAGTCACCTAGTGCAG”, the binding signal was 3950 fluorescence intensity (a.u.). For “TTCAACTATAAATTGAAATCGAATCCATTTCTTGTGATACCGGAGTCACCTAGTGCAG”, the binding signal was 8080 fluorescence intensity (a.u.). With “TCTTAAATTTTCGGAGCTCAATAACAAATTTTAATACCACCGGAGTCACCTAGTGCAG” the binding signal was 4110 fluorescence intensity (a.u.). With “GTTAATGGTGACTTTATTTTCGTCTGTTACAAAACGGAAGCGGAGTCACCTAGTGCAG” the binding signal was 6500 fluorescence intensity (a.u.). With “ATCACCTAATCAATTGAATCCATCAATTCAAGTAGATTCACGGAGTCACCTAGTGCAG” the binding signal was 9390 fluorescence intensity (a.u.). With “TGTCATCAAACAAATTAACCAGCCCACTCAGGCCAAGCCCCGGAGTCACCTAGTGCAG” the binding signal was 3770 fluorescence intensity (a.u.). With “GTGTAATTTGTATAAGTAGCTACCATTAACTAAAATTCAGCGGAGTCACCTAGTGCAG” the binding signal was 11200 fluorescence intensity (a.u.). For “CTTAATCTTGTCATCACGAGAAGATTAGCGTTGGAAGAAACGGAGTCACCTAGTGCAG”, the binding signal was 3580 fluorescence intensity (a.u.). “TGGTGGGTGGTTGATTGATTGTTCTTTCCTTCCTCGTGAGCGGAGTCACCTAGTGCAG” was tested, and the binding signal was 34000 fluorescence intensity (a.u.). For “CCGATTCAATTTTAAATTTGAATTCAAATTTGAATTTGAACGGAGTCACCTAGTGCAG”, the binding signal was 6920 fluorescence intensity (a.u.). For “CAAATAAACCGGCACCTATAATCATTTAACCAACTCCGCACGGAGTCACCTAGTGCAG”, the binding signal was 3710 fluorescence intensity (a.u.). With “CCTTACAATATTAATTAAGCTGTATAAGTAGTTTACTACACGGAGTCACCTAGTGCAG” the binding signal was 3380 fluorescence intensity (a.u.). “ACAGCTAATTAAGCAATTTAATTTTGTCACCACAATTTGCCGGAGTCACCTAGTGCAG” was tested, and the binding signal was 50200 fluorescence intensity (a.u.). “ATATATTTTAGACAGACGAGCATATATGGACAGGCAACGGCGGAGTCACCTAGTGCAG” was tested, and the binding signal was 5340 fluorescence intensity (a.u.). “GAAAATTGCTGATGATATACATCAATGTGGCTGCCATGGTCGGAGTCACCTAGTGCAG” was tested, and the binding signal was 11100 fluorescence intensity (a.u.). In the case of “ATATACATCATCAGTACTCTAATTGAAATATATGATCCTACGGAGTCACCTAGTGCAG”, the binding signal is reported as 13100 fluorescence intensity (a.u.). “TTGCCAAATTTAAATTTTAAACTTGATTTTAAGTTTTAGTCGGAGTCACCTAGTGCAG” was tested, and the binding signal was 23500 fluorescence intensity (a.u.). In the case of “ATAATTAGTTAATACTTCCATCAAGGAGTAATAAAGTCAGCGGAGTCACCTAGTGCAG”, the binding signal is reported as 11300 fluorescence intensity (a.u.). In the case of “AGAACATTAAGAAAACTTAATTGCCTAGACTTGTATGATGCGGAGTCACCTAGTGCAG”, the binding signal is reported as 6380 fluorescence intensity (a.u.). “ATGATTGCTGCGTCCCGGGAAAAGAGGGGCAAAAGCGTACCGGAGTCACCTAGTGCAG” was tested, and the binding signal was 7680 fluorescence intensity (a.u.). For “CTCACCAAATTGGCAAACTCATTGAGAGACTCGATCTTTGCGGAGTCACCTAGTGCAG”, the binding signal was 19100 fluorescence intensity (a.u.). For “TTGAAATGGAGGGAGTAATTACGGCGTACATTTCCCTCTCCGGAGTCACCTAGTGCAG”, the binding signal was 4780 fluorescence intensity (a.u.). For “AAAATCAAAACAATCACGAGATTAGAAGCATCTTTTAGTACGGAGTCACCTAGTGCAG”, the binding signal was 8560 fluorescence intensity (a.u.). In the case of “CCCCTGACATCAATCGTCGCACCATCCATTCGATCGGTTTCGGAGTCACCTAGTGCAG”, the binding signal is reported as 4720 fluorescence intensity (a.u.). In the case of “AGTAAATTGGAGCTTACTGCCCTGCCATGAATGCCTGTTTCGGAGTCACCTAGTGCAG”, the binding signal is reported as 29900 fluorescence intensity (a.u.). With “ATATTTAATTATTACGAACACAACGGTATAATCGGATTGTCGGAGTCACCTAGTGCAG” the binding signal was 23400 fluorescence intensity (a.u.). With “GAAATTGAGTATATAACTAATTCAAATGAGTATGAAACTTCGGAGTCACCTAGTGCAG” the binding signal was 7250 fluorescence intensity (a.u.). For “TTCCTCTTATGATTGATTTGAAGATGCCCTTATCCATATTCGGAGTCACCTAGTGCAG”, the binding signal was 26700 fluorescence intensity (a.u.). For “TAGGTTGATGCAAATTGAAAATATATGTTGCGAGCGGCGGCGGAGTCACCTAGTGCAG”, the binding signal was 6430 fluorescence intensity (a.u.). With “AAAACTTTTATATGACTGTTTAAATTACATGTATACACCTCGGAGTCACCTAGTGCAG” the binding signal was 6500 fluorescence intensity (a.u.). With “TGTCCCTCAATCAATTTGGTTATGTCCTTCATATTTCGTTCGGAGTCACCTAGTGCAG” the binding signal was 18600 fluorescence intensity (a.u.). In the case of “GTAATTTATAGTCAAATTTGTTATTTTGTTTCGAATTATACGGAGTCACCTAGTGCAG”, the binding signal is reported as 14600 fluorescence intensity (a.u.). With “TAAATTTATCATAATTAATATCAAATGCTTTAGTTTATGCCGGAGTCACCTAGTGCAG” the binding signal was 25900 fluorescence intensity (a.u.). With “GCGTGATGAGCTGCCCCGGTCGCGATTGCTGGGCTCCGCTCGGAGTCACCTAGTGCAG” the binding signal was 4430 fluorescence intensity (a.u.).
